Measured values reported in the supplement of paper PMC6531468.
Some of the results follow. Read counts after selection give these values, which scatter widely. Scores sum up all selected molecules that hold the word; the word was not tested alone.

Experiments:
Experiment in all cases: 6-mer SELEX enrichment z-score vs GST control; IMP3 is the RNA-binding protein IGF2BP3; higher = more enriched by binding
IMP3 KH1-4 = conditions: construct: KH1-4 (164-579); SELEX round: R4
Protocol: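 SELEX-seq with GST-tagged IMP3 KH1-4 (Pro164-Lys579) and an N40 RNA pool, round 4. 6-mer z-score of sequence-tag enrichment normalised to the corresponding GST SELEX round; RNA k-mers written as DNA (T for U).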

IMP3 RRM1-2 = conditions: construct: RRM1-2 (1-163); SELEX round: R2
Chain of IMP3 RRM1-2 (chain, as listed by the source): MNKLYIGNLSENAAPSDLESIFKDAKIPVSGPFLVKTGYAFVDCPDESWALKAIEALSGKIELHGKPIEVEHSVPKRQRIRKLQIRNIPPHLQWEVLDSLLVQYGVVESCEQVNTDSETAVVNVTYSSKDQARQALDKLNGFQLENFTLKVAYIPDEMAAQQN
Protocol: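 SELEX-seq with GST-tagged IMP3 RRM1-2 (Met1-Asn163) and an N40 RNA pool, round 2. 6-mer enrichment z-score normalised to GST SELEX. RNA written as DNA (T = U).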

IMP3 full-length = IMP3 full-length (UniProt O00425); conditions: construct: FL IMP3 (1-579); SELEX round: R4
Chain of UniProt O00425 (O00425 whole entry): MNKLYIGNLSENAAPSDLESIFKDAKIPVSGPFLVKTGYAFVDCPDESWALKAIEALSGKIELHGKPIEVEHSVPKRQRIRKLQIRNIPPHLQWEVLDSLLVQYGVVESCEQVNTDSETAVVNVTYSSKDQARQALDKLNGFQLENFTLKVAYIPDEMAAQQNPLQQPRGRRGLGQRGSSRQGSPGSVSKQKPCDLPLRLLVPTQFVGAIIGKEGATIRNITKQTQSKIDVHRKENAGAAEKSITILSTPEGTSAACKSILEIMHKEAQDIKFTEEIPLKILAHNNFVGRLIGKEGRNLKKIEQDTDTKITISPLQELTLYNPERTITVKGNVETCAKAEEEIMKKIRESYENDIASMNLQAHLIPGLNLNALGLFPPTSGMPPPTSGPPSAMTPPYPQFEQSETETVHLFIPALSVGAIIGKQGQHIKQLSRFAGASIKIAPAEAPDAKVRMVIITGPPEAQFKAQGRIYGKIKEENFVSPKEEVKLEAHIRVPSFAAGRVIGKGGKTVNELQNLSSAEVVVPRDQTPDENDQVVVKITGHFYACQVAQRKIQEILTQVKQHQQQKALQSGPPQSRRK
Protocol: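 SELEX-seq with GST-tagged full-length IMP3 and an N40 RNA pool, round 4. Each 6-mer is scored as an enrichment z-score of sequence tags containing it, normalised to the matching GST SELEX round. RNA written as DNA (T = U).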

IMP3 KH1-2 = conditions: construct: KH1-2 (164-376); SELEX round: R4
Chain of IMP3 KH1-2 (chain, as listed by the source): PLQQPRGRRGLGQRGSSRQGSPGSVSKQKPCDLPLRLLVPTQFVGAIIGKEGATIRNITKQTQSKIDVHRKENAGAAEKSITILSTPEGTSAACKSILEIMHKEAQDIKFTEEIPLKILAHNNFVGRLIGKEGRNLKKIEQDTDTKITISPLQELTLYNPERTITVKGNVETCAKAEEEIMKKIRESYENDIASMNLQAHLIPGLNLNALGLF
Protocol: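 SELEX-seq with GST-tagged IMP3 KH1-2 (Pro164-Phe376) and an N40 RNA pool, round 4 (stringent 300/600 mM KCl washes). 6-mer z-score of sequence-tag enrichment normalised to the corresponding GST SELEX round; RNA k-mers written as DNA (T for U).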

IMP3 KH3-4 = conditions: construct: KH3-4 (377-579); SELEX round: R4
Chain of IMP3 KH3-4 (chain, as listed by the source): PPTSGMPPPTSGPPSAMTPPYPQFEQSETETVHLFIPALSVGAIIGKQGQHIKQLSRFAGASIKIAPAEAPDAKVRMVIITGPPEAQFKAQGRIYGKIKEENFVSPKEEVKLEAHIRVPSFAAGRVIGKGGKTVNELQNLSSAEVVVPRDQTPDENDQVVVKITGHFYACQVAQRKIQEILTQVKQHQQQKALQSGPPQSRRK
Protocol: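 SELEX-seq with GST-tagged IMP3 KH3-4 (Pro377-Lys579) and an N40 RNA pool, round 4. 6-mer z-score of sequence-tag enrichment normalised to the corresponding GST SELEX round; RNA k-mers written as DNA (T for U).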

Chain of IMP3 KH1-4 (chain, as listed by the source): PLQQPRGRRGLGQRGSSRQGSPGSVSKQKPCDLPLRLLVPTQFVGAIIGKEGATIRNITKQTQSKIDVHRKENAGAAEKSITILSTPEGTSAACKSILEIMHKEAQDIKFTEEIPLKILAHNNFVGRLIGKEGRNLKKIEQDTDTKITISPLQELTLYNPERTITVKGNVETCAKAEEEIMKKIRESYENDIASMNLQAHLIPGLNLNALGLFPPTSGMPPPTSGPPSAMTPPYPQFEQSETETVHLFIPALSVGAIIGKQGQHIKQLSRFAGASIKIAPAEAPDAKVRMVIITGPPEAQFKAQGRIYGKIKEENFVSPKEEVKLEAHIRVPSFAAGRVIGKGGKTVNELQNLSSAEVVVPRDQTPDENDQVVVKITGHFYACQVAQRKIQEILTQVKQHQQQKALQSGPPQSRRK

Sequence	6-mer SELEX enrichment z-score (IMP3 KH1-4)	6-mer SELEX enrichment z-score (IMP3 RRM1-2)	6-mer SELEX enrichment z-score (IMP3 full-length)	6-mer SELEX enrichment z-score (IMP3 KH1-2)	6-mer SELEX enrichment z-score (IMP3 KH3-4)
AAAACT	-0.89	-1.67	-2.22	-0.614	-0.313
CGTAGT	-1.24	0.175	-0.471	-1.05	-1.07
GACGGC	0.956	-0.227	1.2	0.514	0.515
TCTCTC	0.498	0.59	0.313	0.464	0.212
ACGTCT	-0.768	0.229	-0.128	-0.615	-0.567
GCATCC	0.383	0.291	1.45	0.178	-0.488
TGGGGA	0.7	-0.041	0.298	0.79	0.828
TGACGC	-0.565	-0.29	-0.397	-0.546	-0.646
GCACTC	-0.343	0.584	0.41	-0.308	-0.572
CACTAT	1.98	0.904	0.77	1.75	1.51
TGAACA	1.16	-0.047	0.351	1.07	1.22
GGAGGA	1.25	-0.541	0.395	1.25	0.993
TACTCA	-0.824	0.253	-0.458	-0.712	-0.863
GTGGTG	0.059	0.373	-0.008	0.104	0.142
TACGCC	0.093	-0.31	-0.227	0.097	-0.365
TTGCTT	0.298	0.459	0.022	0.309	0.39
ATAGGG	0.796	0.134	0.434	0.789	1.16
CTCAGT	-0.011	0.459	0.38	-0.049	-0.148
AAGAGG	0.894	-0.801	0.059	0.862	1.32
TCTATA	0.881	0.255	0.243	0.776	0.996

Sequence	6-mer SELEX enrichment z-score (IMP3 KH1-4)	6-mer SELEX enrichment z-score (IMP3 RRM1-2)	6-mer SELEX enrichment z-score (IMP3 full-length)	6-mer SELEX enrichment z-score (IMP3 KH1-2)	6-mer SELEX enrichment z-score (IMP3 KH3-4)
GGGACC	-0.833	-0.089	-0.222	-0.611	-0.842
ACAGCC	-0.254	0.13	0.409	-0.081	-0.943
AAGAGC	-3.33	-0.97	-1.94	-3.07	-2.86
CTCGGA	-0.83	-0.093	-0.258	-0.755	-0.667
GGTGTG	0.176	0.231	0.128	0.199	0.23
ACCCGG	-1.79	-1.05	-0.882	-1.62	-1.84
GTGTGG	-0.011	0.176	-0.084	0.06	0.078
GATGAA	1.33	-1.42	-0.598	0.971	1.91
CCTTAC	-0.122	-0.129	-0.617	-0.162	-0.514
CAGCGA	-1.54	-0.232	-0.21	-1.39	-1.41
TCGTCC	-0.151	0.107	0.133	-0.272	-0.41
GACTAC	-0.342	-0.476	-0.62	-0.251	-0.422
ATCGGA	0.095	-0.239	0.053	-0.243	0.109
GGTACC	-0.766	0.337	0.212	-0.654	-0.632
TTGATG	0.442	-0.111	-0.192	0.193	0.599
TTGTCA	0.141	0.359	0.19	-0.001	0.169
CGTCCC	-0.95	-0.33	-0.201	-0.858	-1.25
CAGTAG	-0.166	0.38	0.299	-0.188	-0.166
TGCCTG	-0.688	-0.032	-0.593	-0.616	-0.728
GCCCCG	-0.885	-0.73	-0.138	-0.471	-1.29

Sequence	6-mer SELEX enrichment z-score (IMP3 KH1-4)	6-mer SELEX enrichment z-score (IMP3 RRM1-2)	6-mer SELEX enrichment z-score (IMP3 full-length)	6-mer SELEX enrichment z-score (IMP3 KH1-2)	6-mer SELEX enrichment z-score (IMP3 KH3-4)
CCGTCT	-0.574	0.116	0.082	-0.368	-0.431
AGAGTT	0.12	0.055	-0.008	0.047	0.264
TAGTGG	0.457	0.306	0.257	0.324	0.519
AGCACA	0.903	2.04	2.14	0.856	0.4
TCAAGC	-1.02	0.535	-0.135	-0.994	-1
ATCGGG	-0.966	0.05	-0.025	-0.777	-0.614
TGCTAT	0.407	0.192	0.032	0.493	0.548
TAAAAT	0.721	-1.09	-0.752	0.72	1.92
AATGGC	0.763	-0.106	0.381	0.396	1.03
AGACTT	-0.158	-0.331	-0.598	-0.098	-0.022
ACTAGT	0.212	0.141	0.036	0.076	0.239
CAACCG	-0.962	-0.605	-0.309	-0.573	-1.55
TGACCA	-0.301	-0.369	-0.824	-0.47	-0.677
TTCCCA	-0.546	-0.231	-0.747	-0.587	-0.884
GGGCCT	-0.497	0.068	0.175	-0.234	-0.278
AAGATA	1.2	-1.27	-0.492	0.998	2.05
CCATGA	-0.05	-0.324	-0.406	-0.302	-0.482
CCTATC	-0.33	0.17	-0.304	-0.314	-0.517
CCAGCA	-0.079	0.857	0.793	-0.137	-0.71
CCCGTG	-0.77	-0.582	-0.547	-0.683	-1.04
